The source of these data is patent publication US9045531B2, “HLA-binding peptide, precursor thereof, and DNA fragment and recombinant vector coding for said HLA-binding peptide” (NEC CORPORATION, priority 2006, dated 2015).

Assay [1] concerns the target HLA-A2 molecule (product of the HLA-A*0201 gene) (Homo sapiens, UniProt P04439, D140Y/D185E/D98H/E176V/E277Q/G131W/G231S/I119V/I121R/I166T/I218V/L300P/L318F/N151K/N90K/P208A/P217A/Q86G/Q94H/R138H/R169H/T345S). In words: Experiment of binding peptide to HLA-A0201 molecule (JY cells, flow cytometry). A general note: Flow cytometry measures light scatter and fluorescence of single cells or particles in a stream.

For assay [2], the target named is HLA-A2 molecule (product of the HLA-A*0206 gene) (Homo sapiens, UniProt P04439, D140Y/D185E/D98H/E176V/E277Q/F33Y/G131W/G231S/I119V/I121R/I166T/I218V/L300P/L318F/N151K/N90K/P208A/P217A/Q86G/Q94H/R138H/R169H/T345S). Nature of the assay: cell-based.

No end group written: not given here.

Consider FRLLQNSQV [SEQ ID NO: 24], for which, in assay [1], the Kd (usually a measure of binding affinity in units of concentration) is 35.1 µM.
The same measure, in the same setting: as for YLEENPSAG [SEQ ID NO: 26], the figure is 12.5 µM; as for SLPFERATI [SEQ ID NO: 22], 5.71 µM.
Consider AQRAMMDQV [SEQ ID NO: 40], for which the affinity in assay [2], expressed as Kd, was 2.27 µM.
Regarding YLEEHPSAG [SEQ ID NO: 21], the Kd in assay [1] was 8.23 µM.
For SALILRGSV [SEQ ID NO: 37], the affinity in assay [2], expressed as Kd, was 145 µM.
On to FQGRGVFEL [SEQ ID NO: 48], for which, in assay [2], the Kd is 0.168 µM.
In the case of AQRAMMDQV [SEQ ID NO: 34], the Kd in assay [1] was 4.63 µM.
In turn, LIFLARSAL [SEQ ID NO: 52, LIFLARSAL] showed a Kd in assay [2] of 186 µM.
In turn, LILYDKEEI [SEQ ID NO: 51] showed a Kd in assay [2] of 4.15 µM.
The sequence WMACHSAAF [SEQ ID NO: 30] showed a Kd in assay [1] of 1.62 µM.
Take FRLLQNSQV [SEQ ID NO: 47]: in assay [2], the Kd was 61.2 µM.
On to LQNSQVFSL [SEQ ID NO: 49], for which the dissociation constant (Kd) in assay [2] is 1.65 µM.
For IFLARSALI [SEQ ID NO: 35], in assay [1], binding was characterised by a dissociation constant (Kd) of 1.15 µM.
Regarding RLIQNSITI [SEQ ID NO: 45], in assay [2], the Kd was 37.6 µM.
